# Experimental data published in PubChem BioAssay AID504466 (National Center for Advancing Translational Sciences (NCATS), 2011).
# Out of some 330,000 compounds screened, about 4,200 (1.3%) were called active. This list was built around the results that the source calls inconclusive (neither active nor inactive); the mix of calls is not that of the screen. The call rests on the fitted dose curve; in most records, active means well fitted activation curve with a large enough effect; inconclusive means small, poorly fitted or top-dose-only effect; inactive means no such curve, though single readings can be large or run the other way. A potency beside an inconclusive call is a rough fit, not a confirmed value.
# Assay: qHTS screen for small molecules that induce genotoxicity in human embryonic kidney (HEK293T) cells expressing luciferase-tagged ELG1; further: nearly all actives have a fitted effect of over 60% in size
# Settings: HEK293T ELG1-luciferase reporter, luminescence, 16 h; series mostly up to 46 µM
# Source text: NIH Molecular Libraries Probe Production Network [MLPCN] NIH Chemical Genomics Center [NCGC] MLPCN Grant: 1 R03 MH092164-01 Assay Provider: Kyungjae Myung, NHGRI, NIH Keywords: MLPCN, qHTS, NCGC, genotoxicity, cancer Assay Overview: Cancer cells divide rapidly compared to normal cells in the body. During cell division, cancer cells need to duplicate their genome by DNA replication. The failure of genome duplication leads to cancer cells' death. Therefore, inhibitors of DNA replication could specifically kill cancer cells. Based on this concept, many chemotherapeutic agents were developed and have been used to treat cancer patients. However, there are a limited number of agents available in the clinical setting, and some of those that do exist have low efficacy and severe side effects. Therefore, if we can find the compounds that effectively block DNA replication either by directly damaging DNA or by inhibiting other cellular mechanisms, the options for cancer treatment will be broadened. With this in mind, we developed a quantitative high-throughput ELG1-luciferase reporter gene assay. Since the level of human ELG1 protein is enhanced in response to genetic stresses, increases in luciferase activity can be used to identify compounds that cause genetic stress.
# Assay Protocol Summary: For genotoxicity screening, 2,000 cells in 5 uL/well were dispensed into white, solid-bottom 1536-well plates using a solenoid-based dispenser. Following transfer of 23 nL compound or DMSO vehicle by a pin tool, the plates were incubated 16 hr at 37 °C and 5% CO2. 5 ul ONE-Glo (Promega) was then added to each plate and following a 30 min incubation at room temperature, luciferase activity was quantified on a ViewLux CCD-based plate reader.
# Potency means the concentration at half of the fitted maximal effect; tags describe the fitted curve by direction and shape.
row,Structure (SMILES),Potency
1,O=C(Nc1ccc2c(c1)CCC2)c1ccc(Br)o1,active: 6.51 µM
2,CCOc1ccc(NC(=O)COc2ccccc2)c([N+](=O)[O-])c1,"inconclusive: 8.2 µM [activator, partial curve]"
3,CC(C(=O)Nc1ccc(Cl)cc1)N1C(=O)NC2(CCCC2)C1=O (configuration not stated),inactive
4,O=C(/C(C=Nc1cccc(C(F)(F)F)c1)=C(/O)c1ccco1)C(F)(F)F,"inconclusive: 8.2 µM [activator, partial curve, poor fit]"
5,COc1ccc(-c2c(C#N)c(SCC(N)=O)nc3c2CCCC3)cc1,inactive
6,CCOC(=O)N1CCC(NC(=O)CN2C(=O)CSc3nc(C)cc(C)c32)CC1,"inconclusive: 29.1 µM [activator, single point]"
7,Cc1ccc(CSc2nc3ccncc3n2CC(=O)Nc2cc(C)cc(C)c2)cc1,"inconclusive: 23.1 µM [activator, partial curve, poor fit]"
8,Cc1cccc(Nc2nc(-c3ccc(O)c(O)c3)cs2)n1,"inconclusive: 20.6 µM [activator, single point]"
9,Cn1c(NC(=S)Nc2ccccc2)nc2ccccc21,"inconclusive: 2.06 µM [activator, full curve, poor fit]"
10,COc1cc(OC)cc(C(=O)Nc2ccc(NC(=O)c3ccco3)c(C)c2)c1,"inconclusive: 16.4 µM [activator, partial curve, poor fit]"
11,COc1ccc(Cl)cc1S(=O)(=O)Nc1ccc2c(c1)n(C)c(=O)n2C,"inconclusive: 20.6 µM [activator, single point]"
12,CC(Cc1ccccc1)NC(=O)c1ccc([N+](=O)[O-])cc1 (configuration not stated),"inconclusive: 10.3 µM [activator, partial curve]"
13,COc1ccc(-n2cnc3cc(N)ccc32)cc1,"inconclusive: 20.6 µM [activator, single point]"
14,Cn1nccc1C(=O)Oc1cccc(/C=N/NC(=O)c2ccccc2O)c1,"inconclusive: 23.1 µM [activator, single point]"
15,Cc1c(N=Cc2nc3ccccc3[nH]2)c(=O)n(-c2ccccc2)n1C,inactive
16,N/C(=N\OC(=O)c1ccc2c(c1)OCO2)c1ccncc1,"inconclusive: 11.6 µM [activator, partial curve, poor fit]"
17,COc1cc(C(C#N)N2N=C(c3ccccc3)CC2c2ccccc2)ccc1O (configuration not stated),"inconclusive: 20.6 µM [activator, partial curve, poor fit]"
18,O=C(CCCOc1ccccc1)N1CCN(c2ccccn2)CC1,active: 2.06 µM
19,COc1ccccc1NS(=O)(=O)c1cc(NC(=O)CNC(=O)c2ccccc2)ccc1C,inactive
20,CC(C)(C)C(=O)OCc1cn(-c2ccc(Cl)cc2)nn1,"inconclusive: 20.6 µM [activator, partial curve, poor fit]"
21,COc1ccc(Nc2nc(C)c3ccccc3n2)cc1,"inconclusive: 18.4 µM [activator, partial curve]"
22,CC(C(=O)Nc1ccc(C#N)cc1)N1CCN(C(=O)C2CC2)CC1 (configuration not stated),inactive
23,COc1ccc(N2C(=O)c3ccccc3NC23CCCC3)cc1,"inconclusive: 4.47 µM [activator, full curve, poor fit]"
24,CC1(C(=O)OCc2cc(=O)n3cc(Br)ccc3n2)CC1(Cl)Cl (configuration not stated),active: 11.6 µM

row,Structure (SMILES),Potency
1,COc1ccc(N2CS(=O)(=O)/C(=C/N(C)C)C2=O)cc1,"inconclusive: 20.6 µM [activator, partial curve, poor fit]"
2,Cc1nc2cc(NC(=O)Nc3cccc([N+](=O)[O-])c3)ccc2n1C,"inconclusive: 1.64 µM [activator, partial curve]"
3,COc1ccc(/C=N/NC(=O)Cc2cccs2)cc1,"inconclusive: 18.3 µM [activator, single point]"
4,COc1ccccc1C(=O)Nc1nnc(S(=O)(=O)N2CCCCC2)s1,inactive
5,FC(F)Oc1ccc(-c2csc(=Nc3cccnc3)n2CC2CCCO2)cc1 (configuration not stated),inactive
6,Cc1n[nH]c(=S)n1/N=C/c1ccccc1OCc1ccc(Cl)cc1Cl,"inconclusive: 18.4 µM [activator, partial curve, poor fit]"
7,COc1ccc(CCN2CCCC(CN(C)C(=O)c3ccoc3)C2)cc1 (configuration not stated),active: 16.4 µM
8,CC(=O)c1sc(NC(=O)c2ccccc2F)nc1C,active: 2.91 µM
9,Cc1ccc(C(=O)Nc2nnc(SCC(=O)N3CCCc4ccccc43)s2)cc1,"inconclusive: 0.92 µM [activator, full curve, poor fit]"
10,COc1ccccc1NC(=S)NNC(=O)c1ccc(O)cc1,"inconclusive: 5.17 µM [activator, partial curve]"
11,COc1ccc(NC(=O)c2cc3ccccc3[nH]2)cc1,"inconclusive: 8.2 µM [activator, partial curve]"
12,CCOCCCn1c(SCc2nc3ccccc3s2)nc2ccccc2c1=O,inactive
13,CC(C)(C)c1ccc(C(=O)NC(=S)NNC(=O)COc2ccccc2)cc1,"inconclusive: 5.8 µM [activator, partial curve]"
14,COc1ccccc1S(=O)(=O)Nc1cccc(-c2nnc3n2CCCCC3)c1,inactive
15,CC(C)c1ccc(N=C2NN=C(c3cccs3)CS2)cc1,"inconclusive: 6.51 µM [activator, full curve]"
16,COc1cccc2cc(C(=O)NCc3ccc(F)cc3)c(=N)oc12,inactive
17,COc1ccc(C(=O)CNc2ccccc2Br)cc1,"inconclusive: 16.4 µM [activator, partial curve, poor fit]"
18,Cc1ccc(NC(=S)N/N=C/c2c(Cl)cccc2Cl)c(C)c1,"inconclusive: 18.4 µM [activator, single point]"
19,CCOC(=O)c1[nH]c2c(c1C)C(=O)CC(c1ccco1)C2 (configuration not stated),"inconclusive: 10.3 µM [activator, partial curve, poor fit]"
20,O=C(Nc1ccc(-c2nnc(-c3ccccc3)o2)cc1)C(F)(F)F,"inconclusive: 5.8 µM [activator, partial curve]"
21,O=C(CN1CCN(Cc2ccccc2Cl)CC1)N=Nc1c(O)[nH]c2ccccc12,inactive
22,Cc1ccc(C(=O)c2sc3nc4c(cc3c2N)CCC4)cc1,"inconclusive: 3.66 µM [activator, full curve]"
23,CN(CC(=O)N1CCCCC1)S(=O)(=O)c1cccc2cccnc12,inactive
24,Cc1cccc(/C=N/NC(=O)c2ccc(NC(=O)c3ccccc3Cl)cc2)n1,"inconclusive: 6.51 µM [activator, partial curve, poor fit]"

row,Structure (SMILES),Potency
1,O=C(Nc1ccc(Cl)cc1)Nc1ccccc1CC[N+](=O)[O-],inactive
2,Cc1c(/C=N/NC(=O)c2ccc3c(c2)OCO3)cnn1C,inactive
3,O=C(CC(=O)N/N=C/c1ccc(Cl)cc1Cl)NCc1ccccc1,"inconclusive: 29.1 µM [activator, partial curve, poor fit]"
4,O=C(c1cc(-c2ccc(Cl)c(Cl)c2)on1)N1CCCCCC1,"inconclusive: 16.4 µM [activator, partial curve]"
5,CC1CCC(=O)N(CCOc2ccccc2)CC1 (configuration not stated),"inconclusive: 23.1 µM [activator, partial curve, poor fit]"
6,COc1ccc(-c2cc3cccc(OC)c3oc2=O)cc1,"inconclusive: 1.03 µM [activator, full curve]"
7,Cc1ccccc1C(=O)Nc1nnc(SCC(=O)NC2CC2)s1,"inconclusive: 10.3 µM [activator, partial curve]"
8,CC(C)Sc1nnc(Nc2ccccc2)s1,"inconclusive: 12.6 µM [activator, partial curve]"
9,CC1CCC(NC(=O)COC(=O)c2cccnc2Cl)CC1 (configuration not stated),inactive
10,CN1CCN(CCCNC(=O)c2cc3c(-c4ccc(Cl)cc4)nn(C)c3s2)CC1,"inconclusive: 18.4 µM [activator, partial curve]"
11,Cc1cc(NC(=O)Nc2ccc(C)c(C)c2)no1,"inconclusive: 20.6 µM [activator, partial curve, poor fit]"
12,COc1ccccc1N1CCN(/N=C/c2ccc(Cl)c([N+](=O)[O-])c2)CC1,"inconclusive: 23.1 µM [activator, partial curve, poor fit]"
13,O=C(COc1ccccc1)N1CCc2ccccc2C1,"inconclusive: 18.4 µM [activator, single point]"
14,CCOC(=O)Cc1csc(NC(=O)Nc2ccc(C)cc2)n1,inactive
15,COc1ccc(/C=C/C(=O)c2ccccn2)cc1,"inconclusive: 6.51 µM [activator, partial curve, poor fit]"
16,COc1cccc(NC(=O)C2CCN(Cc3cnn(-c4ccccc4)c3-n3cccc3)CC2)c1,inactive
17,N#CCCN1CCN(C(=S)c2ccc(-c3ccc(Cl)c(Cl)c3)o2)CC1,"inconclusive: 11.6 µM [activator, partial curve, poor fit]"
18,CC1=NN(C(N)=S)C(=O)C1N=Nc1ccc(C)cc1C (configuration not stated),active: 11.2 µM
19,CCOC(=O)CSc1nc(CC)nc2ccccc12,inactive
20,COc1ccccc1Cn1nnc2c(=O)[nH]c(C3CCN(C(=O)c4ccc(C)cc4)CC3)nc21,inactive
21,O=C(Cc1cccs1)NCc1cccc(Cl)c1,"inconclusive: 25.9 µM [activator, partial curve, poor fit]"
22,Nc1c(C(=O)N2CCOCC2)sc2nc3c(cc12)CCCC3,active: 0.58 µM
23,O=c1c2ccccc2oc2ccc(NCCCn3ccnc3)cc12,"inconclusive: 1.46 µM [activator, full curve]"
24,Cc1ccc(NC(=O)c2ccc(OC(=S)N3CCOCC3)cc2)cc1,"inconclusive: 25.9 µM [activator, partial curve, poor fit]"
